Hit rate of the full screen: of about 420,000 compounds, about 50,000 (12%) were called active. Inconclusive means that the source gave no clear call. Such entries were picked first, then a sample of the others. The call rests on the fitted dose curve; in most records, active means well fitted inhibition curve with a large enough effect; inconclusive means small, poorly fitted or top-dose-only effect; inactive means flat fitted curve, though single readings scatter. No potency is given beside an inconclusive call; the fits are too rough.
Experiment: qHTS for Inhibitors of human tyrosyl-DNA phosphodiesterase 1 (TDP1): qHTS in cells in presence of CPT; further: nearly all actives have a fitted effect of over 55% in size
Conditions: chicken DT40 Tdp1-/-;hTDP1 cells + 20 nM CPT, ATP luminescence, 48 h; activity change, negative = growth inhibition: at 46.2 µM (top of the series)
In short: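 Chicken DT40 Tdp1-/- cells stably complemented with human TDP1 were seeded at 400 cells/well in medium containing 20 nM camptothecin, exposed to pin-transferred compounds, and grown at 37 °C for at least 48 hr. Viability was read as ATP luminescence.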
On the % scale 0 is the no-effect control and ±100 the full control effect; potency means the concentration at half of the fitted maximal effect; tags describe the fitted curve by direction and shape.

| SMILES | activity change, negative = growth inhibition | Potency |
| --- | --- | --- |
| Cc1ccccc1-c1nc(CS(=O)CC(=O)NCc2ccccn2)c(C)o1 (configuration not stated) | inactive: 16.4% |  |
| COc1cccc(-c2nn(C)c3sc(C(=O)NCc4ccc(C)o4)cc23)c1 |  | inconclusive [inhibitor, single point] |
| COCCc1nn2c(=O)cc(COC(=O)c3ccco3)nc2s1 | inactive: -3.73% |  |
| Cc1ccc(Cc2c(-c3ccc(Cl)cc3)nc3cc(C)ccn23)cc1 |  | inconclusive [inhibitor, single point] |
| COc1cc2nc(NC3CCN(C)CC3)nc(NC3CCN(C)CC3)c2cc1OC |  | inconclusive [inhibitor, single point] |
| Cn1nc(-c2ccccc2F)c2cc(C(=O)N3CCN(C(=O)c4ccco4)CC3)sc21 |  | active: 29.1 µM |
| CN(C)CCN(C(=O)C1=COCCO1)c1nc2ccc(F)cc2s1 | inactive: -7.62% |  |
| Fc1ccc(CNC(=S)Nc2ccc(OC(F)F)cc2)cc1 |  | inconclusive [inhibitor, single point] |
| O=C(NCCCc1ccccc1)Nc1ccccc1 | inactive: -17% |  |
| Cc1ccc(C(C)C)c(OCc2ccc(C(=O)N/N=C/c3ccc(O)c(O)c3)cc2)c1 |  | active: 2.31 µM |
| COc1ccc(-c2cc(=O)c3c(OC)c(OC)c(OC)c(OC)c3o2)cc1 |  | active: 23.1 µM |
| O=C(O)/C(=C\c1cccc(O)c1)c1ccc(S(=O)(=O)N2CCCC2)s1 | inactive: -14.2% |  |
| CC1CN(S(=O)(=O)c2ccc(C(=O)N3CCc4ccccc43)cc2)CC(C)O1 (configuration not stated) | inactive: -7.85% |  |
| Cc1ccc(C(=O)N/C(=C\c2cccs2)C(=O)NCCc2c[nH]c3ccccc23)cc1 |  | inconclusive [inhibitor, single point] |
| COc1ccc(-n2c(=S)[nH]c3cc(C(=O)Nc4ccc(F)cc4)ccc3c2=O)c(OC)c1 |  | active: 16.4 µM |
| CC(=O)c1ccc(NC(=O)c2cc(S(=O)(=O)N3CCOCC3)ccc2C)cc1 |  | inconclusive [inhibitor, single point] |
| Cc1ccc(S(=O)(=O)CCC(=O)NCCN2C(=O)S/C(=C/c3ccc(F)cc3)C2=O)cc1 |  | active: 23.1 µM |
| CC(C)Nc1ccc(Nc2ccnc3cc4ccccc4cc23)cc1 |  | active: 8.2 µM |
| CC(Oc1ccccc1)C(=O)N1CCN(C(=O)C(C)Oc2ccccc2)CC1 (configuration not stated) | inactive: -2.3% |  |
| Cc1ccc(-c2nnn(CC(=O)N(CC(=O)NCC3CCCO3)c3ccc(F)c(Cl)c3)n2)o1 (configuration not stated) |  | inconclusive [inhibitor, single point] |
| Oc1ccc2ccccc2c1CNc1ccc(Br)cc1 |  | active: 16.4 µM |
| CCC1CCCCN1CCN1C(=O)C2C(C(=O)Nc3ccc(OC)cc3)C3C=CC2(O3)C1C(=O)NC1CCCCC1 (configuration not stated) |  | inconclusive [inhibitor, single point] |
| CCc1nnc(NC(=O)/C=C/c2ccc(C)o2)s1 | inactive: 0.648% |  |
| CCC(Sc1nc2cc(OC)c(OC)cc2c(=O)n1Cc1ccc(OC)cc1)C(=O)NCCOC (configuration not stated) |  | inconclusive [inhibitor, single point] |

| SMILES | activity change, negative = growth inhibition | Potency |
| --- | --- | --- |
| COc1ccc(S(=O)(=O)NCC2CCCN(C(=O)c3sccc3C)C2)cc1 (configuration not stated) | inactive: -28.7% |  |
| COc1ccc(/C=C/C(=O)OCC(=O)Nc2ccc(N3CCOCC3)cc2)cc1OC | inactive: -13.2% |  |
| CCN(CC)CCn1c2c(c(SCC(=O)Nc3cccc4ccccc34)nc1=O)CCCC2 |  | inconclusive [inhibitor, single point] |
| Cc1cc([N+](=O)[O-])nn1CC(=O)Nc1sc2c(c1C(N)=O)CCCC2 | inactive: 7.48% |  |
| Cc1cc(N2CCN(c3ccccc3)CC2)n2cnnc2n1 |  | inconclusive [inhibitor, single point] |
| C[C@H]1CN=C(N(C)C)N1CC1CCC(C(C)(C)C)CC1 (some centres not stated) |  | active: 13 µM |
| O=C(Nc1nc(-c2ccc3c(c2)OCO3)cs1)C1CC1 |  | active: 2.31 µM |
| COc1ccc(Nc2nc3ccccc3n3nnnc23)cc1 | inactive: 4.86% |  |
| c1nc(CCO[C@H]2CCCCO2)cc2cc3c(cc12)OCO3 |  | inconclusive [inhibitor, single point] |
| C=CC(=O)N1C/C(=C/c2ccc(Cl)cc2)C(=O)/C(=C\c2ccc(Cl)cc2)C1 |  | active: 0.231 µM |
| COc1cc(/C=C/C(=O)OCC(=O)Nc2ccc(C)c(S(=O)(=O)N3CCCCC3)c2)ccc1O |  | inconclusive [inhibitor, single point] |
| Cc1ccc(CN(CC(=O)NC2CCCC2)C(=O)CSc2nnc(COc3ccccc3)o2)cc1 |  | inconclusive [inhibitor, single point] |
| CN(CC(=O)Nc1cccc(F)c1)CC(=O)Nc1cccc(S(N)(=O)=O)c1 | inactive: 0.689% |  |
| Cc1cc(C)c2c(c1)cc(C)c1nnc(SCC(=O)Nc3ccccc3N3CCOCC3)n12 |  | inconclusive [inhibitor, partial curve] |
| Cc1nc(-c2ccc(F)cc2)sc1CCNC(=O)c1ccc(OC(C)C)cc1 |  | inconclusive [inhibitor, single point] |
| Cc1ccccc1CC1(CO)CCCN(C(=O)c2cc(-c3ccccc3)no2)C1 (configuration not stated) |  | inconclusive [inhibitor, single point] |
| COc1ccc(/C(N)=N/OC(=O)c2ccco2)cc1 |  | inconclusive [inhibitor, partial curve] |
| O=C(N/N=C/c1ccccc1)c1c(O)c2ccccc2[nH]c1=O |  | active: 9.2 µM |
| COc1ccccc1CNC(=O)C1CCN(C2=NS(=O)(=O)C(c3ccc(C)c(C)c3)=C2C)CC1 |  | active: 16.4 µM |
| O=C(C[n+]1cc(-c2ccc(Br)cc2)n2c1CCCCC2)c1ccccc1 |  | inconclusive [inhibitor, single point] |
| Cc1cc(C)cc(OCC(=O)N(Cc2ccc(Cl)cc2)C2CCS(=O)(=O)C2)c1 (configuration not stated) |  | inconclusive [inhibitor, single point] |
| Cc1noc(NC(=O)c2c(-c3c(Cl)cccc3Cl)noc2C)c1[N+](=O)[O-] |  | inconclusive [inhibitor, partial curve] |
| CCC1CCc2sc(C(=O)N(C)CC(=O)Nc3cccc(OC)c3)cc2C1 (configuration not stated) |  | inconclusive [inhibitor, single point] |

Source: PubChem BioAssay AID686979 (National Center for Advancing Translational Sciences (NCATS), 2013)
